Assay results taken from US20220177589A1 (OXFORD UNIVERSITY INNOVATION, published 2022).

Target: T1, Human HVEM extracellular domain, fused to mouse IgG1 Fc (human; mouse, UniProt Q92956 39-202)
T1 construct: extracellular domain; also called human HVEM-mFc; herpesvirus entry mediator; not shown: mouse IgG1 Fc
T1 sequence (looked up): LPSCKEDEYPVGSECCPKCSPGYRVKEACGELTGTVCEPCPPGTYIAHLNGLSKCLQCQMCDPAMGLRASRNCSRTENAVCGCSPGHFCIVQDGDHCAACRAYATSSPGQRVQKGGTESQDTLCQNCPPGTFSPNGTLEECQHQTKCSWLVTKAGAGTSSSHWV
Assay: SPR (Biacore T200), human BTLA extracellular domain amine-coupled to the chip, HVEM-mFc injected before and after a saturating antibody injection, 37 °C

B1: monomeric soluble human BTLA extracellular domain (BTLA […]) (receptor)
chain: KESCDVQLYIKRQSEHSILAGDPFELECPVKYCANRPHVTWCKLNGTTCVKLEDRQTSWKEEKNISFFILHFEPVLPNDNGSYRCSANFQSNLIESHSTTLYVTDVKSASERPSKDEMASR
notes: monomeric; also called hBTLA; monomeric BTLA
  binding result: binds
